According to paper PMC5700166:
The entries are a selection whose mix differs from that of the whole data set. The list includes weakly bound sequences.

Each sequence was assayed against T1, GST-Nv-NF-kB (Cys allele) (UniProt E5G601) (assay: protein-binding microarray (PBM)). Settings: PBM: ~300 nM protein, 6 mM HEPES pH 7.8, 80 mM KCl, 0.5 mM EDTA, 0.5 mM EGTA, 6% glycerol, 35 ng/ul poly-dIdC, 1% milk, 1 h, room temperature; high values mean tight binding; double strand, one strand shown.
T1 sequence: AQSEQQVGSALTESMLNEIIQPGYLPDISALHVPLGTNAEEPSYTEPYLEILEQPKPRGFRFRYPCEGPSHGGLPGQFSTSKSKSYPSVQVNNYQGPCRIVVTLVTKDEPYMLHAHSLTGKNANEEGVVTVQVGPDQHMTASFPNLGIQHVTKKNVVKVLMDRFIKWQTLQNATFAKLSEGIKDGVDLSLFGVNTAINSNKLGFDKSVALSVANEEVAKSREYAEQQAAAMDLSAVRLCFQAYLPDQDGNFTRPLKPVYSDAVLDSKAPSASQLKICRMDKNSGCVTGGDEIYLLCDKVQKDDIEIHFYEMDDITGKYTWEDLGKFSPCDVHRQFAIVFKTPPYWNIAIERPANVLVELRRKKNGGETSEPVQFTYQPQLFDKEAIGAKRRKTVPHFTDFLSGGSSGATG

| Sequence | binding signal [z-score] |
| --- | --- |
| CCGATTAACATCAGATTTCCCCCTGATGTTAATCGGGTCTTGATTCGCTTGACGCTGCTG | 8.96 |
| CCGATTAACATCACACATCCCCCTGATGTTAATCGGGTCTTGATTCGCTTGACGCTGCTG | 4.4 |
| CCGATTAACATCAAAAATTCCCTTGATGTTAATCGGGTCTTGATTCGCTTGACGCTGCTG | 9.28 |
| CCGATTAACATCAGGGCATTCCATGATGTTAATCGGGTCTTGATTCGCTTGACGCTGCTG | 0.863 |
| CCGATTAACATCACCCAGGGAAATGATGTTAATCGGGTCTTGATTCGCTTGACGCTGCTG | 2.66 |
| CCGATTAACATCAAATTCCCCCATGATGTTAATCGGGTCTTGATTCGCTTGACGCTGCTG | 8.92 |
| CCGATTAACATCAAGGGGGAGAATGATGTTAATCGGGTCTTGATTCGCTTGACGCTGCTG | 6.63 |
| CCGATTAACATCAGAAAATTACCTGATGTTAATCGGGTCTTGATTCGCTTGACGCTGCTG | 3.89 |
| CCGATTAACATCAAAAACTTCCCTGATGTTAATCGGGTCTTGATTCGCTTGACGCTGCTG | 5.84 |
| CCGATTAACATCACGGTGTTTCCTGATGTTAATCGGGTCTTGATTCGCTTGACGCTGCTG | 1.22 |
| CCGATTAACATCACGGCAACCCCTGATGTTAATCGGGTCTTGATTCGCTTGACGCTGCTG | 0.862 |
| CCGATTAACATCAAATATTTCCCTGATGTTAATCGGGTCTTGATTCGCTTGACGCTGCTG | 6.57 |
| CCGATTAACATCACGGGGAGTCCTGATGTTAATCGGGTCTTGATTCGCTTGACGCTGCTG | 3.95 |
| CCGATTAACATCACGGGCTTTCCTGATGTTAATCGGGTCTTGATTCGCTTGACGCTGCTG | 0.529 |
| CCGATTAACATCACGGGAAGCCCTGATGTTAATCGGGTCTTGATTCGCTTGACGCTGCTG | 1.91 |
| CCGATTAACATCAGGAATGCCCCTGATGTTAATCGGGTCTTGATTCGCTTGACGCTGCTG | 6.58 |
| CCGATTAACATCACCACCACCCCTGATGTTAATCGGGTCTTGATTCGCTTGACGCTGCTG | 0.972 |
| CCGATTAACATCAGGGGAAAAAATGATGTTAATCGGGTCTTGATTCGCTTGACGCTGCTG | 8.26 |
| CCGATTAACATCACCGTTTCCCCTGATGTTAATCGGGTCTTGATTCGCTTGACGCTGCTG | 6.66 |
| CCGATTAACATCAGGCTTTCCCATGATGTTAATCGGGTCTTGATTCGCTTGACGCTGCTG | 2.94 |

| Sequence | binding signal [z-score] |
| --- | --- |
| CCGATTAACATCAATATACCCCCTGATGTTAATCGGGTCTTGATTCGCTTGACGCTGCTG | 4.24 |
| CCGATTAACATCAGAGAAACCCCTGATGTTAATCGGGTCTTGATTCGCTTGACGCTGCTG | 4.86 |
| CCGATTAACATCACGGGATTGCCTGATGTTAATCGGGTCTTGATTCGCTTGACGCTGCTG | 0.472 |
| CCGATTAACATCAGGGAAATCTATGATGTTAATCGGGTCTTGATTCGCTTGACGCTGCTG | 5.31 |
| CCGATTAACATCAGGGGGGTTACTGATGTTAATCGGGTCTTGATTCGCTTGACGCTGCTG | 4.42 |
| CCGATTAACATCAGGGGAATGTATGATGTTAATCGGGTCTTGATTCGCTTGACGCTGCTG | 7.74 |
| CCGATTAACATCAAGGAAGTCCCTGATGTTAATCGGGTCTTGATTCGCTTGACGCTGCTG | 5.94 |
| CCGATTAACATCAATACTCCCCCTGATGTTAATCGGGTCTTGATTCGCTTGACGCTGCTG | 5.41 |
| CCGATTAACATCAGGGGGAACCATGATGTTAATCGGGTCTTGATTCGCTTGACGCTGCTG | 6.04 |
| CCGATTAACATCAAAAAAGTACCTGATGTTAATCGGGTCTTGATTCGCTTGACGCTGCTG | 7.84 |
| CCGATTAACATCAGGATATCCCCTGATGTTAATCGGGTCTTGATTCGCTTGACGCTGCTG | 7.01 |
| CCGATTAACATCAAAAACTCCCATGATGTTAATCGGGTCTTGATTCGCTTGACGCTGCTG | 5.15 |
| CCGATTAACATCACGGTAATCCCTGATGTTAATCGGGTCTTGATTCGCTTGACGCTGCTG | 1.91 |
| CCGATTAACATCAAAATACCCCGTGATGTTAATCGGGTCTTGATTCGCTTGACGCTGCTG | 5.39 |
| CCGATTAACATCAGGGGAAATTATGATGTTAATCGGGTCTTGATTCGCTTGACGCTGCTG | 10.5 |
| CCGATTAACATCAGGAGAGTCCCTGATGTTAATCGGGTCTTGATTCGCTTGACGCTGCTG | 5.29 |
| CCGATTAACATCACTGGGAAAACTGATGTTAATCGGGTCTTGATTCGCTTGACGCTGCTG | 2.36 |
| CCGATTAACATCAAGGGATCCCCTGATGTTAATCGGGTCTTGATTCGCTTGACGCTGCTG | 5.8 |
| CCGATTAACATCACGGAGATCCCTGATGTTAATCGGGTCTTGATTCGCTTGACGCTGCTG | 0.437 |
| CCGATTAACATCAAGGAAAGCCCTGATGTTAATCGGGTCTTGATTCGCTTGACGCTGCTG | 0.737 |

The sequences below were run against T2, GST-Co-NF-kB (UniProt F1ARL5) (assay: protein-binding microarray (PBM)). Settings: PBM: ~300 nM protein, 6 mM HEPES pH 7.8, 80 mM KCl, 0.5 mM EDTA, 0.5 mM EGTA, 6% glycerol, 35 ng/ul poly-dIdC, 1% milk, 1 h, room temperature; Ap Aiptasia and Nv Nematostella (sea anemones) / Co Capsaspora / Aq Amphimedon (sponge) / Dm Drosophila / Hu human; RHD is the Rel homology domain; high values mean tight binding; most listed sequences are background and not binding sites; double strand, one strand shown.
T2 sequence: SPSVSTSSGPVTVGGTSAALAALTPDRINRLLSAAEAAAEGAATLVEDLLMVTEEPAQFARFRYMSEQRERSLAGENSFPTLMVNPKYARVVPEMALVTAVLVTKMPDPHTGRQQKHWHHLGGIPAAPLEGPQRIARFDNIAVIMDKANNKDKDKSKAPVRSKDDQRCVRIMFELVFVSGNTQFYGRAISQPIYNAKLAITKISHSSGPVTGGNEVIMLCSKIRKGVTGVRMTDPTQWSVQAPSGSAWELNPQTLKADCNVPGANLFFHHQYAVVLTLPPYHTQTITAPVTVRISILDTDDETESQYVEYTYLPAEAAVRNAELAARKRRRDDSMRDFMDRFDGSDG

| Sequence | binding signal [z-score] |
| --- | --- |
| CCGATTAACATCAGATTTCCCCCTGATGTTAATCGGGTCTTGATTCGCTTGACGCTGCTG | 11 |
| CCGATTAACATCACACATCCCCCTGATGTTAATCGGGTCTTGATTCGCTTGACGCTGCTG | 4.17 |
| CCGATTAACATCAAAAATTCCCTTGATGTTAATCGGGTCTTGATTCGCTTGACGCTGCTG | 4.19 |
| CCGATTAACATCAGGGCATTCCATGATGTTAATCGGGTCTTGATTCGCTTGACGCTGCTG | 0.593 |
| CCGATTAACATCACCCAGGGAAATGATGTTAATCGGGTCTTGATTCGCTTGACGCTGCTG | 2.73 |
| CCGATTAACATCAAATTCCCCCATGATGTTAATCGGGTCTTGATTCGCTTGACGCTGCTG | 9.97 |
| CCGATTAACATCAAGGGGGAGAATGATGTTAATCGGGTCTTGATTCGCTTGACGCTGCTG | 7.92 |
| CCGATTAACATCAGAAAATTACCTGATGTTAATCGGGTCTTGATTCGCTTGACGCTGCTG | 0.323 |
| CCGATTAACATCAAAAACTTCCCTGATGTTAATCGGGTCTTGATTCGCTTGACGCTGCTG | 3.89 |
| CCGATTAACATCACGGTGTTTCCTGATGTTAATCGGGTCTTGATTCGCTTGACGCTGCTG | -0.101 |
| CCGATTAACATCACGGCAACCCCTGATGTTAATCGGGTCTTGATTCGCTTGACGCTGCTG | 0.5 |
| CCGATTAACATCAAATATTTCCCTGATGTTAATCGGGTCTTGATTCGCTTGACGCTGCTG | 5.89 |
| CCGATTAACATCACGGGGAGTCCTGATGTTAATCGGGTCTTGATTCGCTTGACGCTGCTG | 4.24 |
| CCGATTAACATCACGGGCTTTCCTGATGTTAATCGGGTCTTGATTCGCTTGACGCTGCTG | 0.365 |
| CCGATTAACATCACGGGAAGCCCTGATGTTAATCGGGTCTTGATTCGCTTGACGCTGCTG | 0.82 |
| CCGATTAACATCAGGAATGCCCCTGATGTTAATCGGGTCTTGATTCGCTTGACGCTGCTG | 1.64 |
| CCGATTAACATCACCACCACCCCTGATGTTAATCGGGTCTTGATTCGCTTGACGCTGCTG | 2.34 |
| CCGATTAACATCAGGGGAAAAAATGATGTTAATCGGGTCTTGATTCGCTTGACGCTGCTG | 11.1 |
| CCGATTAACATCACCGTTTCCCCTGATGTTAATCGGGTCTTGATTCGCTTGACGCTGCTG | 7.95 |
| CCGATTAACATCAGGCTTTCCCATGATGTTAATCGGGTCTTGATTCGCTTGACGCTGCTG | 2.07 |

| Sequence | binding signal [z-score] |
| --- | --- |
| CCGATTAACATCAATATACCCCCTGATGTTAATCGGGTCTTGATTCGCTTGACGCTGCTG | 6.57 |
| CCGATTAACATCAGAGAAACCCCTGATGTTAATCGGGTCTTGATTCGCTTGACGCTGCTG | 0.79 |
| CCGATTAACATCACGGGATTGCCTGATGTTAATCGGGTCTTGATTCGCTTGACGCTGCTG | 0.862 |
| CCGATTAACATCAGGGAAATCTATGATGTTAATCGGGTCTTGATTCGCTTGACGCTGCTG | 4.52 |
| CCGATTAACATCAGGGGGGTTACTGATGTTAATCGGGTCTTGATTCGCTTGACGCTGCTG | 4.24 |
| CCGATTAACATCAGGGGAATGTATGATGTTAATCGGGTCTTGATTCGCTTGACGCTGCTG | 6.26 |
| CCGATTAACATCAAGGAAGTCCCTGATGTTAATCGGGTCTTGATTCGCTTGACGCTGCTG | 0.929 |
| CCGATTAACATCAATACTCCCCCTGATGTTAATCGGGTCTTGATTCGCTTGACGCTGCTG | 8.03 |
| CCGATTAACATCAGGGGGAACCATGATGTTAATCGGGTCTTGATTCGCTTGACGCTGCTG | 8.58 |
| CCGATTAACATCAAAAAAGTACCTGATGTTAATCGGGTCTTGATTCGCTTGACGCTGCTG | 0.587 |
| CCGATTAACATCAGGATATCCCCTGATGTTAATCGGGTCTTGATTCGCTTGACGCTGCTG | 3.66 |
| CCGATTAACATCAAAAACTCCCATGATGTTAATCGGGTCTTGATTCGCTTGACGCTGCTG | 2.58 |
| CCGATTAACATCACGGTAATCCCTGATGTTAATCGGGTCTTGATTCGCTTGACGCTGCTG | 0.958 |
| CCGATTAACATCAAAATACCCCGTGATGTTAATCGGGTCTTGATTCGCTTGACGCTGCTG | 5.77 |
| CCGATTAACATCAGGGGAAATTATGATGTTAATCGGGTCTTGATTCGCTTGACGCTGCTG | 9.24 |
| CCGATTAACATCAGGAGAGTCCCTGATGTTAATCGGGTCTTGATTCGCTTGACGCTGCTG | 0.295 |
| CCGATTAACATCACTGGGAAAACTGATGTTAATCGGGTCTTGATTCGCTTGACGCTGCTG | 5.25 |
| CCGATTAACATCAAGGGATCCCCTGATGTTAATCGGGTCTTGATTCGCTTGACGCTGCTG | 4.18 |
| CCGATTAACATCACGGAGATCCCTGATGTTAATCGGGTCTTGATTCGCTTGACGCTGCTG | 0.253 |
| CCGATTAACATCAAGGAAAGCCCTGATGTTAATCGGGTCTTGATTCGCTTGACGCTGCTG | -0.195 |
